Reference: the supplement of paper PMC3334620
In all, about 33,000 sequences were measured (“E-score (-0.5 to 0.5)”: median about -0.035, highest 2% from about 0.35 on). Some of the results follow.

biological target: T1, Pdr3 (UniProt P33200); experiment: PBM E-score (8-mer binding enrichment) (E-score (-0.5 to 0.5)); higher = stronger / more preferred TF binding; most listed sequences are background and not binding sites; conditions: protein concentration: 200 nM; construct: GST-full length
T1 sequence: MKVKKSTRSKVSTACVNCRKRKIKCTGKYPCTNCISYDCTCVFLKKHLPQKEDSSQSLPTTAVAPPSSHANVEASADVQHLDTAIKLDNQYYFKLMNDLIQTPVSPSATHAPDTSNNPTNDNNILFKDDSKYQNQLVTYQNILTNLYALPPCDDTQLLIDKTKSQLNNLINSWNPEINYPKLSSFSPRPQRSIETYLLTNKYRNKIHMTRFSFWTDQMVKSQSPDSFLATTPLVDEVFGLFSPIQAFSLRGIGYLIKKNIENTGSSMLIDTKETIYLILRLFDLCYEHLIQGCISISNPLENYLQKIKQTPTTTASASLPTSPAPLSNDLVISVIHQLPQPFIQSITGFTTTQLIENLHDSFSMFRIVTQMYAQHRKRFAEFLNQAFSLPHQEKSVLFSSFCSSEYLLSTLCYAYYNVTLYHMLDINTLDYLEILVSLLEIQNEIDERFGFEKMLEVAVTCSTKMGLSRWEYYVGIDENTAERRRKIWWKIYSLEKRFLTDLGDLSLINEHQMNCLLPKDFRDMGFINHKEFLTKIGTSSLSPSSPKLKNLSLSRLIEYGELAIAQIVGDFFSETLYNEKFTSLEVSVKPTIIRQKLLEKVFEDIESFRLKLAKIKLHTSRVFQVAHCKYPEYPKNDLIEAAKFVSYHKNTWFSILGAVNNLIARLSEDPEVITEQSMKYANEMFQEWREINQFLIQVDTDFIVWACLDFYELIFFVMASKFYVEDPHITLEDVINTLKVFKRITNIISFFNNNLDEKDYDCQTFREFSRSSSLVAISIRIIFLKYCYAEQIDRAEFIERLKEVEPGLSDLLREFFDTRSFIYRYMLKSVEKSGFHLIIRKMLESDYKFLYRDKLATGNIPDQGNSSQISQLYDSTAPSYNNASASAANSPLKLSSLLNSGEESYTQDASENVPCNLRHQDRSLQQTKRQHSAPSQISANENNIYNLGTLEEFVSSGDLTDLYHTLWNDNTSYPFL
Outline: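 Universal all-10-mer Agilent arrays, double-stranded by primer extension on fresh or once-stripped slides, were probed with about 100-200 nM GST-tagged yeast transcription factors made by PURExpress. Fluorescent anti-GST detected bound protein, and masliner normalised the scans. E-scores from the Universal PBM Analysis Suite were given to each ungapped eight-base word pooled with its reverse complement.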

Sequence	PBM E-score
GGCACATA	0.0447
AGAAGGGC	-0.0354
GTGTCCCA	0.0876
GGAGGCAA	-0.113
CAGCGAAC	-0.0505
AGGTCGAG	-0.201
GGCTCTAC	-0.0317
TAAGACAA	-0.0914
CATAATTA	-0.0778
CTCCGAGC	0.296
AAGATGTA	-0.207
ACGGGTTC	0.202
ACCCTAAT	-0.238
GACGGTGA	-0.0501
CGTAGAGC	-0.0444
CCATTCGA	-0.133
GCAACCAA	0.141
CTTCCCAC	-0.0487
GGAACACC	0.224
AGAACTAA	0.016
ATCGACGG	0.229
GACCCTCC	0.0699
TCAACGCA	-0.0152
ATGATTTA	-0.0349
ACACCGAC	0.0164

Sequence	PBM E-score
GGCAAATA	0.0766
CATCGGGA	0.263
CAGGAGGG	-0.223
GTCCCATA	-0.137
CGGACACC	0.295
AGCGGAGC	0.216
GTCCGACA	0.243
GGGCGTTA	-0.08
TAGTCTGA	-0.242
CGGATCAA	0.356
CCGCCGCA	0.202
CTCTCATC	-0.13
CCCGGATA	0.34
CGTCCACA	0.0377
ATTAGCAC	-0.0101
GGACTGCC	0.0829
GGACTATA	0.0155
CGAATTGC	0.102
AGGTACCG	0.146
TCGCGGAA	0.404
GAATCTGC	0.0825
CTACCCCC	-0.118
GAGCCGCA	0.044
CCGACCGA	0.251
CCGACTCC	0.229

Sequence	PBM E-score
GGTAATCA	0.0535
TAAAAGGA	-0.0678
CTTGCGTC	-0.0859
GACGTGGA	-0.0258
AAGTAGCC	-0.0354
AGAGAGAC	-0.267
GCGAATTA	0.152
ACAATTGG	-0.182
GAGCTTGC	-0.199
AACATTTC	-0.0476
ACAGCGCA	-0.041
ATCCGGCG	0.323
ATACGGAT	0.241
AAATCCAT	0.17
AGCTACAG	-0.165
ATGTGAAT	0.0094
AGTTTACA	-0.151
AAAGAAGC	-0.115
CCTCCTTC	-0.0977
CCAAGCGC	0.0275
GCTATCCA	0.00502
GCGGCAAC	0.145
ACATGCGA	-0.297
CGTTAGAG	-0.0371
ATGTGGTA	-0.0392

Sequence	PBM E-score
GCGAGAGA	-0.148
ACTGATCT	0.0846
GAGGACAC	0.0582
ACCTCCAC	0.0419
CCCTTTTA	-0.154
GCCATACC	-0.0913
CGGACTAG	0.139
TCGTCAGA	-0.134
AGGATAGG	-0.243
GAGTTATA	-0.129
GGCGAGGA	-0.04
CCCTTGCC	-0.103
GATTTTGC	-0.123
GCGACACC	-0.0851
ACCCCTTC	-0.0871
CATCGCCG	0.184
CCACCGGC	0.204
CGTCTTTA	0.0715
ATCGGGTC	0.222
CAGCACTC	-0.127
ATTCTTAA	-0.081
CCGGGAAC	0.362
CCTAGTCC	-0.177
TCTGTACA	0.0628
AGATCTGA	-0.0628

Sequence	PBM E-score
CGATTTTC	0.0993
ACGCGTCG	0.166
CGCGTGTA	-0.0492
TCCTTCAA	-0.0748
ACGATGTG	-0.0589
TCCATCCA	-0.305
AGCTACGA	-0.272
CATTCTCC	-0.105
AAGGCGGG	-0.104
CTCAGCCC	-0.241
GTCGCTCA	-0.112
GATCAGGA	0.0747
GATAGATA	0.0126
AAGATGGT	0.00413
ACAGGACT	-0.219
CGAATTGA	0.063
GATTGCAC	-0.0178
CTCCACCC	-0.165
TGTGAAAA	-0.142
ACATATAG	-0.0381
AAGGAACT	0.0764
AGTATTGA	-0.122
CCTCTGCG	-0.158
AAACGACA	-0.0828
ACGTAAAG	-0.232

Sequence	PBM E-score
CCTGTAGC	-0.282
CTCTGGGC	-0.109
GCCTTAAC	-0.241
CTTGTGCA	0.0626
AGAGCGTA	-0.118
TACGATGA	-0.172
ACCCTACC	-0.188
AATGACGC	-0.175
GACGCGCA	0.0698
AGTGAGCA	-0.218
ATCGAGAG	-0.0159
CGACGCGC	0.224
TATCATAA	0.0184
CGAACCGC	0.188
AGGGGTAA	-0.213
AACACCGG	0.265
CGAGGCGC	0.231
AACCGGGG	0.199
CACTGTCG	-0.00829
GGCCAGCC	-0.0146
ACAAGCTC	0.119
CGAAGGAC	0.0231
ATTTATTA	0.097
TTTGAAAA	-0.145
AATCAGAA	0.11

Sequence	PBM E-score
ATCTCCAT	0.0657
AATTTGAG	-0.131
GGACTGAC	-0.1
ACCCCCCG	0.0732
ACTATTTC	0.143
GACTAGTA	-0.117
CCACTGAC	-0.18
CCGTTTCG	0.295
AATTCGAC	-0.296
ACAGTTCG	0.0917
CGCACCGA	-0.07
GATATCAC	-0.0175
CGTTGCAC	0.108
TGGACAAA	0.0216
ACGTGCCC	-0.0152
GCCGCCCA	0.165
GACTGCCA	0.0687
AGTCAAAG	-0.0639
ACGCACAA	-0.0592
AATGAAGG	-0.156
CCTAGAGC	-0.123
CACGCCTA	-0.242
